The source of these data is PubChem BioAssay AID488969 (Vanderbilt High Throughput Screening Facility, 2010).

Whole data set: some 110,000 compounds, median “z-score” near -0.1, cut for the highest 2% near 2. Some of the results follow. Active and inactive are the calls of the source.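 How the source made its calls: active means z-score in the third read window above 3 or below -3; inactive means the rest.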

The target of this assay is Metabotropic glutamate receptor 8 (Rattus norvegicus) (UniProt P70579). As to the kind of experiment: rat mGluR8 modulators via GIRK flux, primary screen, cell-based, thallium flux, HTS (AID 488969). To be noted: HEK293 rat mGluR8, GIRK (G protein-gated inwardly rectifying potassium channel) thallium flux, FluoZin2; at 10 µM; stronger effect = higher value; submaximal glutamate (EC20) added with thallium.
Sequence of UniProt P70579 (P70579 whole entry, looked up): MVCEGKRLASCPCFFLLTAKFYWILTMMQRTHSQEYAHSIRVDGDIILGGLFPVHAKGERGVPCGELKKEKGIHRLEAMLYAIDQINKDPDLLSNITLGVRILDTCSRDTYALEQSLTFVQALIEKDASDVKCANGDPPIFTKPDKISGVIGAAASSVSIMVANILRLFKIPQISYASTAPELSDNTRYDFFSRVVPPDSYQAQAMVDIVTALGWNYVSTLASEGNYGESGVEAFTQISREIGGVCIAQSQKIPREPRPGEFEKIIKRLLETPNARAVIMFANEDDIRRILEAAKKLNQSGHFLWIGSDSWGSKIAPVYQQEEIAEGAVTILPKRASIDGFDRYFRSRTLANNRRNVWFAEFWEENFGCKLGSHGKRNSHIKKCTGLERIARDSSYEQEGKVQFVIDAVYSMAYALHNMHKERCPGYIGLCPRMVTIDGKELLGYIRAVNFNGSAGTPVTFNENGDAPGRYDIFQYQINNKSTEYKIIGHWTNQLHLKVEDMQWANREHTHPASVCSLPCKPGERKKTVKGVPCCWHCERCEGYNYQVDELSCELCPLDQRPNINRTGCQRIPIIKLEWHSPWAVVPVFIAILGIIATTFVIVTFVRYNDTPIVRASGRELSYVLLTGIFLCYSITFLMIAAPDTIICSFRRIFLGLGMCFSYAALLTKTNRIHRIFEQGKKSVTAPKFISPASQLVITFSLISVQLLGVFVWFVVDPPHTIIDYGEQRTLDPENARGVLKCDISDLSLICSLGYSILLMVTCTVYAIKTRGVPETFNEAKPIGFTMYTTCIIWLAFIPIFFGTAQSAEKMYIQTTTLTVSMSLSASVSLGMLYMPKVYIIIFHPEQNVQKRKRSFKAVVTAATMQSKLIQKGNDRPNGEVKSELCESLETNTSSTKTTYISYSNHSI
`O=C(Nc1nncs1)c1cccc(S(=O)(=O)N2CCOCC2)c1` returned a z-score of 0.353.
Next, `CCCCNc1nc2c(c(=O)[nH]c(=O)n2C)n1CCOc1ccccc1`: 0.106; `Cc1ccccc1NC(=O)N1CCCC(c2nc(-c3ccc(C(C)C)cc3)no2)C1` (stereo unspecified): -0.239.
Next, `Cc1ccc(C)c(NC(=O)C2CC3c4ccccc4C2c2ccccc23)c1` (stereo unspecified): 0.151; `CC(C)[C@H](NC(=O)NCc1cccs1)C(=O)O`: 0.105; `CN(C)C(=O)c1ccc(Oc2ccc(C(=O)N(C)C)cc2)cc1`: 2.6.
With `O=C(Cc1cn2ccsc2n1)OCc1nc2ccccc2s1` the figure was 0.0367; with `Cc1ccc(S(=O)(=O)N(C#N)c2nc(C)cc(C)n2)cc1`, -0.212; with `CCCCOC(=O)Nc1nc(C)c(C(=O)OCC)s1`, -0.0329.
In the case of `Cc1cc(C)c2c(N)c(-c3nc4ccccc4[nH]3)sc2n1`, the z-score is -0.418.
`COc1cccc(-c2noc(C3CCCN(S(=O)(=O)c4cccc(Cl)c4C)C3)n2)c1` (stereo unspecified) returned a z-score of 0.354.
Next, `O=C(O)Cn1ccnc1`: -0.327.
With `Cc1ccc(-c2csc(-c3c[nH]c4ccccc34)n2)c(C)c1` the figure was -0.17.
In the case of `Oc1[nH]c2ccccc2c1N=NC(=S)NCC1CCCO1` (stereo unspecified), the z-score was active: 3.01.
`COc1ccc(-c2[nH]ncc2/C=N\NS(=O)(=O)c2ccccc2)cc1OC` registered a z-score of -0.2.
Next, `CCCCN(NC(C)=O)c1nc(Cl)nc(NC(C)C)n1`: -0.129; `CCOC(=O)c1ccc(NC(=O)C2CC2)cc1`: -0.0174.
Next, `COc1cc(CNCCCN2CCOCC2)cc(Br)c1OCC(=O)N1CCCCC1`: -0.0144; `Cc1n[nH]c(=O)nc1NCC1CCCO1` (stereo unspecified): -0.169.
With `CC1CC(C)(C)NC(=S)N1CC(=O)N(C)Cc1ccccc1` (stereo unspecified) the figure was -0.189.
In turn, `C/C(=N\Nc1ccc([N+](=O)[O-])cc1)c1cccc(N)c1` had a z-score of -0.247.
With `O=C(CCn1c(=O)oc2ccccc21)Nc1ccon1` the figure was 0.238; with `Cc1nc(NC(=O)C(C)Oc2cccc(Cl)c2)sc1C(=O)N(C)C` (stereo unspecified), -0.251; with `Cc1cc(Cl)c(S(=O)(=O)NCc2cccnc2)cc1OCC(N)=O`, 0.034.
The molecule `Cc1ccc(CSc2ccc(-c3ccco3)nn2)cc1` returned a z-score of 0.361.
With `Cc1onc(-c2ccccc2)c1C(=O)Nc1nc(-c2ccccc2)cs1`, the z-score was -0.393.
With `Cc1cccc(-n2cnc(C(=O)NC3CCCCCC3)c2)n1` the figure was -0.376; with `Cc1ccc(C(=O)NCC(=O)OCc2csc(-c3ccccc3)n2)cc1`, -0.0892; with `CCN1C(=O)CC(n2c(C)nc3ccccc32)C1=O` (stereo unspecified), 0.288.
Molecule `CC(C(=O)NCCN1C(=O)S/C(=C\c2cccs2)C1=O)N1C(=O)c2ccccc2C1=O` (stereo unspecified) yielded a z-score of -0.139.
For `COC(=O)c1nnn(-c2nonc2N)c1CSc1nc2ccccc2s1`, the z-score was 0.29.
Next, `COc1ccc(C=O)cc1COc1c(F)c(F)cc(F)c1F`: -0.366; `O=C(C1CC(c2ccc(F)cc2)=NO1)N1CCN(Cc2ccccc2)CC1` (stereo unspecified): -0.104.
Next, `CCCCn1c(SCC(=O)Nc2ccc3c(c2)CCC3)nc2ccccc2c1=O`: 0.449.
In the case of `CC(C)c1nc(N2CCOCC2)c(C#N)c2c1COC(C)(C)C2`, the z-score worked out at 0.752.
Next, `CCOC(=O)CCSc1nc(C)c2cc(C)c(C)cc2n1`: -0.215.
On to `COc1ccc(NC(=O)/C(C#N)=C/c2cc(C)n(-c3ccc(N4CCOCC4)c([N+](=O)[O-])c3)c2C)cc1`, for which the z-score was -0.109.
With `O=C(NCCN1CCCCCC1)c1ccc(CS(=O)(=O)c2ccc(Br)cc2)o1` the figure was -0.338.
With `CCC(=O)Nc1nc(OC)cc(OC)n1` the figure was 0.0522; with `Cc1ccc(S(=O)(=O)Nc2ccc3c(c2)CCC3)cc1`, -0.101; with `CCCS(=O)(=O)N1CCN(Cc2ccc(OCc3ccccc3)c(OC)c2)CC1`, -1.96.
Next, `O=C(COC(=O)c1ccccc1O)Nc1ccc(OC(F)F)cc1`: 0.198.
With `O=C(Nc1ccc(O)c(-c2nc3ccccc3s2)c1)C1=COCCO1`, the z-score was active: -4.15.
With `CC1=CC(C)C2C(=O)N(O)C(=O)C2C1` (stereo unspecified) the figure was -0.584.
With `O=C(CSc1ncn[nH]1)c1ccc2c(c1)OCO2` the figure was 0.0524; with `COC(=O)c1ccc2nc(Nc3nc4ccc(F)cc4s3)sc2c1`, 0.254.
Regarding `O=C(Nc1ccc2oc(-c3cccnc3)nc2c1)c1ccc(Br)o1`, the z-score was -0.17.
`COc1ccc(NC(=O)c2ccc(OC(F)F)cc2)cc1Cl` displayed a z-score of -0.559.
For `COc1cc(CNn2nnnc2N)cc(Br)c1OCC(=O)NC(C)(C)C`, the z-score is -0.0782.
With `O=C(CSc1nccc(=O)[nH]1)N1c2ccccc2CCc2ccccc21` the figure was 0.789; with `COc1cccc(/C=N/N2C(=O)C3C4c5ccccc5C(c5ccccc54)C3C2=O)c1OC` (stereo unspecified), 1.07.
Take `CCOC(=O)c1c(NC(=O)CC2Sc3ccc(C(F)(F)F)cc3NC2=O)sc(C)c1C` (stereo unspecified): the z-score is -0.162.
The molecule `O=C(/C=C\c1ccco1)Nc1nc(-c2ccc3ccccc3c2)cs1` registered a z-score of -0.0451.
Next, `CC(C)Oc1ccc(CNC(=O)Cn2c(=O)oc3ccccc32)cc1`: -0.0192; `COc1ccccc1N1CCN(/N=C/c2c(C)nn(-c3ccccc3)c2C)CC1`: -0.0643.
With `Cc1ccc(C(=O)CSc2nnc(COc3cc(C)cc(C)c3)o2)cc1` the figure was 0.0827.
Turning to `COc1cccc(C2C(C#N)=C(N)N(c3ncn[nH]3)C3=C2C(=O)CCC3)c1` (stereo unspecified), the z-score was -0.241.
Molecule `Cc1nn(Cc2ccc(Cl)cc2)c(C)c1NC(=O)c1noc2c1CCc1ccccc1-2` came in with a z-score of -0.182.
Next, `Cc1cccc(C)c1NC(=O)CSc1nnc(C)n1-c1ccccc1`: -0.199.
On to `CCOC(=O)c1cnc(SCC(=O)Nc2ccc(NC(=O)CC)c(OC)c2)nc1N`, for which the z-score was -0.185.
With `Cc1cc(C)c(C)c(S(=O)(=O)NCC(=O)N2CCCC2)c1C` the figure was -0.391; with `O=C(CSc1nc2ccccc2o1)N1CCN(C(=O)c2ccco2)CC1`, -0.103; with `CCCCCC(=O)Nc1ccc2oc(-c3cccnc3)nc2c1`, -0.137.
Next, `O=C(O)c1nn2c(c1Br)NC(c1ccccc1)CC2C(F)(F)F` (stereo unspecified): 0.232; `COC(=O)c1c(-c2ccccc2)csc1NC1=NS(=O)(=O)c2ccccc21`: -0.125.
Next, `O=C(c1cccs1)N1CCN(C(=O)N2CCOCC2)CC1`: 0.265; `COc1ccccc1OCCn1cc(/C=C(\C#N)C(=O)NCc2ccco2)c2ccccc21`: -0.138; `CC(=O)Nc1ccccc1-c1nc2ccc(C(=O)N3CCN(c4cccc(C)c4)C(C)C3)cc2[nH]c1=O` (stereo unspecified): -0.161.
Molecule `O=C(Cc1ccccc1)Nc1ccc(CN2CCOCC2)cc1` displayed a z-score of 0.203.
With `CCN(CC)C(=O)CSc1nnc(-c2ccc(S(=O)(=O)NCc3ccccc3Cl)cc2)o1` the figure was -0.0586.
With `CSC1=NCCN1C(=O)c1ccc(S(=O)(=O)N2CCOCC2)cc1` the figure was 0.58.
